Results on 97 compounds are retold here after PubChem BioAssay AID1956 (SRMLSC, 2009).

The other results are listed elsewhere or left out. These are further read-outs of the screen, such as a control signal, another cell line or another target. No call is given for them.

The nature of this assay: compounds boosting herpes simplex virus growth – fold increase, host cell viability (AID 1956). Note: tested in PC3 cells. To be noted: HSV replication augmentation in cells; fold increase: measured here: primary screen fold increase 10 uM, at 10 µM, stronger effect = higher value; viability: measured here: host cell viability series, at 25 µM, stronger effect = lower value.
As for `O=C(C1=NN(c2ccccc2)C2C(=O)N(c3cccc(Cl)c3)C(=O)C12)c1ccccc1` (stereo not given), the fold increase amounted to 3.23 and the viability is 102%.
On the same counts, the results for `COc1cc(/C=C2/CC/C(=C/c3ccc(O)c(OC)c3)C2=O)ccc1O` are 1.42 and 44.1%.
For `O=C(O)c1ccc(-n2cncn2)c([N+](=O)[O-])c1`, the fold increase came out at 1.43 and the viability was 96.8%.
On the same counts, the results for `Cc1ccccc1-n1cc(C(=O)c2cc(Cl)ccc2O)cc(C#N)c1=O` are 1.54 and 81%.
As for `O=C(/C=C/c1cccs1)NC(=S)Nc1ccc(C(=O)O)cc1`, the fold increase came to 1.44 and the viability stood at 96.4%.
As to `CCN(CC)C(=O)CSc1nnc2nnc3cc(Cl)ccc3n12`, the fold increase was found to be 1.38 and the viability was determined as 85.2%.
The like results for `C=CCN(CC=C)C(=S)NCCc1ccc(OC)c(OC)c1` were, in that order, 1.4 and 105%.
For the compound `CCN(C(=O)COC(=O)c1cc2ccccc2cc1O)C1CCS(=O)(=O)C1` (stereo not given), the fold increase worked out at 1.32.
`CCc1cccc2cc3c(N)c(C(=O)Nc4ccc(S(=O)(=O)N5CCCC5)cc4)sc3nc12`: the fold increase turned out to be 5.92 and the viability is 93.5%.
The like results for `CC1(C)CC(=O)C=C(N2CCCC2)C1` were, in that order, 1.34 and 88.3%.
`Cc1ccccc1C(=O)Nc1cccc(NC(=S)NC(=O)c2cccs2)c1` yielded a fold increase of 1.21.
Same read-out and setting: the result for `O=C1c2cccc3c(N4CCCCC4)ccc(c23)C(=O)N1c1ccccc1O` reads 8.29.
With `O=C(Nc1cccnc1)c1cc(-c2ccco2)on1`, the fold increase came out at 1.34 and the viability came out at 101%.
The like results for `CCc1ccc2nc3sc(C(=O)Nc4nnc(CC)s4)c(N)c3cc2c1` were, in that order, 2.71 and 91.5%.
The like results for `O=C(COC(=O)/C=C/c1cccs1)NC(c1ccccc1)c1ccccc1` were, in that order, 1.34 and 94.5%.
Consider `C=CCn1c(=O)/c(=C/c2ccc(O)cc2)s/c1=C(/C#N)c1nnc2n1CCCCC2`, for which the fold increase came out at 3.66.
In the case of `Cc1c(N=C2N=C(NC(=O)c3cccs3)c3ccccc32)c(=O)n(-c2ccccc2)n1C`, the fold increase is 1.7 and the viability was found to be 71.9%.
Regarding `Cc1ccccc1-n1c(O)c(/C=C/C=Nc2ccccc2)c(=O)[nH]c1=O`, the fold increase was 3.61.
As for `Cc1cccc(CSc2nnc(-c3cnccn3)n2C)c1`, the fold increase worked out at 1.35 and the viability was 98.8%.
Regarding `COc1ccccc1NC(=O)C1=C(C)NC(SCC(=O)c2ccccc2)=C(C#N)C1c1ccco1` (stereo not given), the fold increase was determined as 1.42.
`c1cncc(-c2nc3ccccc3[nH]2)c1`: the fold increase stood at 1.27 and the viability is 94.8%.
The like results for `Cc1ccnc(N/C=C(\C#N)c2nc(-c3cccc(Br)c3)cs2)c1` were, in that order, 6.75 and 83.8%.
On the same counts, the results for `CSc1cccc(NC(=O)c2ccccn2)c1` are 1.34 and 96.4%.
Consider `Cc1ccc(CNc2ccc3c(c2)OCO3)c(C)c1`, for which the fold increase amounted to 1.37.
As to `O=C1c2cccc3c([N+](=O)[O-])ccc(c23)C(=O)N1Cc1cccnc1`, the fold increase was 7.98 and the viability amounted to 2.31%.
For `CCOC(=O)c1cc(C(=O)c2ccccc2O)cn2c(=O)c3c(C)c(C)sc3nc12`, the fold increase was determined as 2.81 and the viability stood at 87.1%.
As to `OCCNc1c2ccccc2nc2c(F)c(F)c(F)c(F)c12`, the fold increase is 1.65 and the viability stood at 31.6%.
Take `COc1cc(/C=C2/SC(=S)N(c3ccccc3)C2=O)ccc1Oc1nc(N2CCOCC2)nc(N2CCOCC2)n1`: the fold increase turned out to be 1.59 and the viability is 93.8%.
`Cc1nonc1NC(=O)CSc1nc2c(C)cccc2cc1C#N` yielded a fold increase of 2.3.
For the compound `Nc1ccc(Oc2ccc(F)cc2)nc1`, the fold increase was 1.92 and the viability is 102%.
The like results for `Cc1cc2cc(CNC(=O)COc3ccccc3)ccc2n1C` were, in that order, 1.49 and 102%.
Turning to `O=C(Nc1ccccc1F)NC1CCN(Cc2nnnn2Cc2ccc(F)cc2)CC1`, the fold increase came to 1.47 and the viability turned out to be 108%.
For the compound `N#C/C(=C\c1ccc([N+](=O)[O-])o1)c1nc2ccccc2[nH]1`, the fold increase stood at 4.51 and the viability came out at 53.2%.
As to `Clc1ccc(/C=N/NC2=Nc3cccc4cccc2c34)cc1`, the fold increase was found to be 1.7 and the viability came out at 88.7%.
The like results for `Cc1cc(C)c(C)c(/C=C(/C#N)C(N)=S)c1C` were, in that order, 1.45 and 100%.
Turning to `O=C(Nc1ccc(O)cc1)c1ccc(C(=O)c2ccccc2)o1`, the fold increase stood at 1.33.
For the compound `Cc1ccc(NC(=O)CSc2nnc(-c3ccncc3)n2N)cc1C`, the fold increase is 1.38 and the viability was 95.5%.
On to `Cc1ccc(-c2noc(-c3ccccc3C(=O)NCc3ccco3)n2)cc1`, for which the fold increase stood at 1.41 and the viability came to 102%.
As to `CCCn1nnc(NC(=S)NC(=O)/C=C/c2ccco2)n1`, the fold increase was found to be 1.41 and the viability worked out at 99.1%.
For the compound `O=C(Nc1cccnc1Cl)C1c2ccccc2Oc2ccccc21`, the fold increase was 1.17.
Same read-out and setting: the result for `CCn1c(C)c(C(C)=O)c(N2CCN(c3cccc(Cl)c3)CC2)nc1=S` reads 1.34.
Regarding `CC(=Nc1cccc(C)c1)c1sc2ccccc2c1O`, the fold increase stood at 2.37 and the viability was determined as 87.6%.
On the same counts, the results for `Oc1ccccc1CNc1nc2ccccc2n1CCN1CCCCC1` are 1.4 and 94.9%.
`Cc1c(N=C2NC(=O)/C(=C/c3cccc([N+](=O)[O-])c3)S2)c(=O)n(-c2ccccc2)n1C` came in with a fold increase of 1.32.
Consider `COc1ccc(-c2cc(-c3ccco3)[nH]c(=O)c2C#N)cc1OC`, for which the fold increase was found to be 1.57 and the viability stood at 92.7%.
The like results for `N/C(CSc1ccccn1)=N\OCc1c(Cl)cccc1Cl` were, in that order, 1.49 and 105%.
The like results for `Cc1ccc(-n2cccc2/C=C2/C(=N)N3C(=NC2=O)SN=C3S(C)(=O)=O)cc1Cl` were, in that order, 1.56 and 94%.
The like results for `CCN1/C(=C\c2ccc3ccccc3[n+]2CC)Sc2cc(C)ccc21` were, in that order, 5.57 and 14.1%.
On to `O=C(O)c1ccc(N=Nc2c(O)[nH]c3cc(Cl)ccc23)cc1`, for which the fold increase is 4.66 and the viability came to 99.9%.
On to `O=C(Nc1ccc(N2CCCC2)cc1)C(c1ccccc1)c1ccccc1`, for which the fold increase was found to be 1.35.
`CC(C)NC(=O)CC(=O)NN=C1CCCCC1`: the fold increase worked out at 1.38 and the viability came out at 99.8%.
Turning to `COc1cc(C(=O)NCCCN2CCCC2=O)cc(OC)c1OC`, the fold increase was 1.45 and the viability stood at 94.9%.
Consider `Cc1cc(C)n2[nH]c(=O)c(N=Nc3cccc(Cl)c3)c2n1`, for which the fold increase came out at 1.27.
Take `Cc1ccc(CC(=O)Nc2ncc([N+](=O)[O-])s2)cc1`: the fold increase was 1.57 and the viability turned out to be 92.8%.
For the compound `CCOc1ccc(C2C=C(c3ccccc3)Nc3nnnn32)cc1` (stereo not given), the fold increase came to 1.47 and the viability was found to be 100%.
Take `O=c1cc(-c2ccccc2)[nH]n1-c1nc2ccccc2[nH]1`: the fold increase amounted to 1.32.
Still for that read-out and setting: with `CC1CCN(C(=S)c2cn(Cc3ccccc3F)c3ccccc23)CC1` the figure was 1.16.
With `COCCCNc1c2c3c(cccc3[nH]c1=O)C(=O)c1ccccc1-2`, the fold increase stood at 5.06 and the viability was 53.2%.
Turning to `CC1CCc2c(sc(Nc3nc4c(F)cccc4s3)c2C(N)=O)C1` (stereo not given), the fold increase turned out to be 4.08 and the viability came out at 84.6%.
As for `CC1=NN(c2ccccc2)C(=O)/C1=C\C=C1/N(C)c2ccccc2C1(C)C`, the fold increase worked out at 1.26.
As to `Clc1nc(-c2ccccc2)cc(-c2ccccc2)n1`, the fold increase was determined as 1.46 and the viability is 95.6%.
On the same counts, the results for `CCOc1cc(/C=C2\CCC/C(=C\c3cc(Cl)c(O)c(OCC)c3)C2=O)cc(Cl)c1O` are 1.91 and 32%.
The like results for `Cc1coc(NC(=O)CSc2nc(-c3ccncc3)cc(C(F)(F)F)c2C#N)n1` were, in that order, 1.71 and 90.3%.
Compound `CC(NC(=O)/C(C#N)=C1\N=C(NC(=O)c2cccs2)c2ccccc21)c1ccccc1` (stereo not given) had a fold increase of 1.42.
Turning to `COc1cc(/C=C2/SC(=NCc3ccccc3)N(Cc3ccccc3)C2=O)ccc1O`, the fold increase worked out at 1.65 and the viability turned out to be 97.3%.
Take `COc1cc(/C=C2\C(C)=C(C#N)c3nc(N)c(C#N)c(C)c32)ccc1OCC(=O)O`: the fold increase was found to be 1.36 and the viability was 93.5%.
Compound `Cc1ccc(C(=O)NC(=S)/C=C2\N(C)c3ccccc3C2(C)C)cc1` showed a fold increase of 2.86.
With `CCCn1c(N)c(C(=O)CSc2nc3ccccc3n2CCC#N)c(=O)n(C)c1=O`, the fold increase came out at 1.24.
As for `O=C(/C=C/c1ccccc1)c1cc(Br)ccc(=O)c1O`, the fold increase was found to be 1.51.
`O=C(NC1CCCCC1)C(c1cccs1)N(C(=O)c1ccco1)c1ccc2c(c1)OCCO2` (stereo not given): the fold increase turned out to be 1.25.
As for `Oc1ccc(/C=N/N=C(c2ccccc2)c2ccccc2)c(O)c1O`, the fold increase was 2.03 and the viability was 98.1%.
On to `COc1ccc(C2c3ccc(O)cc3Oc3ncn(Cc4ccco4)c(=N)c32)cc1` (stereo not given), for which the fold increase came to 1.35 and the viability was 93.2%.
The compound `Cc1nn(-c2ccccc2)c2[nH]c(=O)c(CNc3ccc(N4CCOCC4)cc3)cc12` returned a fold increase of 1.28.
As for `COC(=O)c1ccc[n+](CCc2c[nH]c3ccccc23)c1`, the fold increase was 1.98 and the viability was found to be 90.7%.
On the same counts, the results for `O=C1Nc2ccccc2Oc2cc([N+](=O)[O-])cc(Oc3ccccc3)c21` are 1.68 and 76.8%.
The like results for `CCOC(=O)c1cn2nc(Oc3ccccc3)ccc2n1` were, in that order, 1.38 and 105%.
On the same counts, the results for `O=C(O)c1ccccc1C(=O)Nc1ccc(-n2ccc(C(F)(F)F)n2)cc1` are 1.37 and 103%.
`CCOc1[nH]n(-c2ccc(Cl)cc2)c(=O)c1C=Nc1ccc(OC)cc1`: the fold increase is 1.32.
For `O=[N+]([O-])c1ccc(Sc2cccc[n+]2[O-])c2nonc12`, the fold increase was found to be 4.26.
Consider `O=C(N=c1ccn(-c2nc3ccccc3nc2NS(=O)(=O)c2ccc(Cl)cc2)cc1)c1ccccc1Cl`, for which the fold increase turned out to be 1.41 and the viability was found to be 103%.
With `COc1cc(/C=C2\SC(=S)N(c3cccnc3)C2=O)ccc1O`, the fold increase is 7.21 and the viability is 92.3%.
Compound `COC(=O)c1c(C)[nH]c(O)c1C=Nc1ccc(Oc2ccccc2)cc1` yielded a fold increase of 1.68.
Consider `COc1ccc(S(=O)(=O)c2c(N)n(Cc3ccco3)c3nc4ccccc4nc23)cc1`, for which the fold increase amounted to 2.32 and the viability was found to be 90%.
Take `CN(Cc1ccon1)Cc1cn(C)nc1-c1ccc2c(c1)OCCO2`: the fold increase was found to be 1.41 and the viability turned out to be 92%.
In turn, `COc1ccc2nc(N3CCCCC3)c(/C=C3\SC(=S)NC3=O)cc2c1` had a fold increase of 1.53.
`Cc1ccc(CC2S/C(=C(/C#N)C(=O)NCc3ccco3)N(c3ccccc3)C2=O)cc1` (stereo not given): the fold increase amounted to 1.42 and the viability was found to be 92.4%.
On the same counts, the results for `CSc1cccc(NC(N)=S)c1` are 1.36 and 89.3%.
The like results for `COc1cc(/C=C(\C#N)C(=O)NCCc2ccccc2)cc(OC)c1O` were, in that order, 2.73 and 95.6%.
`COC(=O)N/N=C/c1cccc(OC(=O)c2ccc3c(c2)OCO3)c1`: the fold increase was 2.07 and the viability came to 101%.
On the same counts, the results for `CCc1ccc(OCCNC(=O)c2ccc(S(=O)(=O)N(C)C)cc2)cc1` are 1.49 and 97%.
On the same counts, the results for `O=C(O)Cc1sc(N/N=C\c2ccccc2)nc1-c1ccccc1` are 1.49 and 101%.
In turn, `CC1=CSC2=NC(C(F)(F)F)(C(F)(F)F)NC(=O)N12` gave a fold increase of 1.32.
For the compound `CCOc1cc(Br)c(/C=C2/C(=O)N(C)C(=S)N2CC(=O)OC)cc1OC`, the fold increase is 1.75 and the viability was determined as 87.8%.
For `CC1=Nc2ccccc2/C1=C/c1sc(=N)n(-c2nccs2)c1O`, the fold increase worked out at 2.84 and the viability was determined as 67.6%.
As for `Cc1cc(C)nc(N/N=C/c2cn[nH]c2-c2ccccc2)n1`, the fold increase stood at 1.34 and the viability was determined as 96.5%.
The like results for `CCOC(=O)c1sc2nc(CC(=O)OC)nc(NCc3ccco3)c2c1C` were, in that order, 2.03 and 90.3%.
The compound `Cc1ccc(-n2c(SCC(=O)Nc3ccc4c(c3)OCO4)nnc2-c2cccs2)cc1` showed a fold increase of 1.02.

Usually viability stands for a read-out of living cells in per cent, often relative to untreated cells.
